Assay results: PMC4336329 (PLoS ONE, 2015)
Among all 310,000 compounds or so, about 2,200 (0.71%) showed an effect of 50% or more. The effect is printed as a negative number. Some of the results follow.

What follows are compounds tested against human ether-à-go-go-related gene (hERG) potassium channel (human, UniProt Q12809) (assay: primary screen, population patch clamp on CHO cells stably expressing hERG).
Sequence of human ether-à-go-go-related gene (hERG) potassium channel (Q12809 whole entry, looked up): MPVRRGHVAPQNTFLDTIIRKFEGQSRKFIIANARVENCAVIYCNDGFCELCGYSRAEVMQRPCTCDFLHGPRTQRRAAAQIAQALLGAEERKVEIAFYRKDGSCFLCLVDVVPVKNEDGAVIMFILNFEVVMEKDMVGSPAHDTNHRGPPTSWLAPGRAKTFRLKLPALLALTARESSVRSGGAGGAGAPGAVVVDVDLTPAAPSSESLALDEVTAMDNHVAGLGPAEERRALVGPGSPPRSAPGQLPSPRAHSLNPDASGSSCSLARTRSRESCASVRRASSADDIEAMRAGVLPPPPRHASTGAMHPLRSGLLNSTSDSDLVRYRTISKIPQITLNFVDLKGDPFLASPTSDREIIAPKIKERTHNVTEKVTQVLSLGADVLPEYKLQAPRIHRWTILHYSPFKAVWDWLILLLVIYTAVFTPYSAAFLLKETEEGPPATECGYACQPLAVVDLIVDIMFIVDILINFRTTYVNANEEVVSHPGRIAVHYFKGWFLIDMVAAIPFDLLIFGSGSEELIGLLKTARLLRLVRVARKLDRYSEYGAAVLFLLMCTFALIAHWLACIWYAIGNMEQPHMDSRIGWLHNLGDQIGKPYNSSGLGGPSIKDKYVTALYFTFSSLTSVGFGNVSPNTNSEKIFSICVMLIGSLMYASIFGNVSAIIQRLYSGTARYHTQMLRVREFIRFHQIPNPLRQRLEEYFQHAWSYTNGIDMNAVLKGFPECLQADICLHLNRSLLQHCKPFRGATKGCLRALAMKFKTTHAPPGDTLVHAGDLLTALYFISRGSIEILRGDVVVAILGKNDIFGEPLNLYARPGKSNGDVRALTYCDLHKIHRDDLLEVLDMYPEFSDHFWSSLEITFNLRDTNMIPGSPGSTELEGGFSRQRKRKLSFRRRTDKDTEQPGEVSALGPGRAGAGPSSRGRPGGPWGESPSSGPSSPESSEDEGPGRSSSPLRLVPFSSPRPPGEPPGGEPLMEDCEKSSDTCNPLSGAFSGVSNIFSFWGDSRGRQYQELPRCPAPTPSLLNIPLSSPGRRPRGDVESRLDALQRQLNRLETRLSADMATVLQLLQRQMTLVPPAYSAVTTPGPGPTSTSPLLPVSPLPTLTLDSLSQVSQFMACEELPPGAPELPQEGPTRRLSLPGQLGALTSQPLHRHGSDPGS
With `Cn1nc2c(c1C(=O)N1CCCC(C(=O)c3cc(F)ccc3F)C1)CCCC2` (stereo not shown) the “hERG current change (%, negative = inhibition) at 1uM” value was 10.8%.
With `O=C(Nc1ccc(Nc2ccccc2)cc1)c1ccccc1` the “hERG current change (%, negative = inhibition) at 1uM” value was 3.32%.
With `O=C(Nc1ccc(Br)cc1F)C1CC(=O)N(C2CCCCC2)C1` (stereo not shown) the “hERG current change (%, negative = inhibition) at 1uM” value was 18.3%.
With `CCOc1c(OC)cccc1C(=O)NCC1(c2ccccc2)CCCC1` the “hERG current change (%, negative = inhibition) at 1uM” value was 12.2%.
`CC1(C)C(=S)N(Cc2ccccc2)c2ccccc21` was tested, and the “hERG current change (%, negative = inhibition) at 1uM” value was 15.8%.
In the case of `CCCCN(CCCC)C(=S)NC(=O)C(C)(C)C`, the “hERG current change (%, negative = inhibition) at 1uM” value is reported as 2.97%.
In the case of `CCN(CC)C(=O)C(C)OC(=O)COc1ccc(Cl)cc1Cl` (stereo not shown), the “hERG current change (%, negative = inhibition) at 1uM” value is reported as 7.44%.
With `CCCCCCCCCCCCCCCC[n+]1ccc(/C=N/O)cc1.[Br-]` the “hERG current change (%, negative = inhibition) at 1uM” value was 12.2%.
In the case of `Cc1nnsc1C(=O)NNS(=O)(=O)c1cc(C(F)(F)F)cc(C(F)(F)F)c1`, the “hERG current change (%, negative = inhibition) at 1uM” value is reported as 10.7%.
In the case of `CC(C)C(NC(=O)c1ccco1)C(=O)NCC(c1ccco1)N1CCCCC1` (stereo not shown), the “hERG current change (%, negative = inhibition) at 1uM” value is reported as 20.8%.
`CC(=O)C1=C(NC(=O)c2ccccc2F)C[C@@H]2[C@H]1C2(C)C` was tested, and the “hERG current change (%, negative = inhibition) at 1uM” value was 14%.
For `O=C(O)C(=O)O.O=S(=O)(c1ccc(Cl)cc1)N1CCC(N2CCOCC2)CC1`, the “hERG current change (%, negative = inhibition) at 1uM” value was 2.41%.
In the case of `CCOc1ccc(-c2nnn(CC(=O)NCc3ccc(OC)cc3)n2)cc1OCC`, the “hERG current change (%, negative = inhibition) at 1uM” value is reported as 5.14%.
With `O=C(CSc1nnc(COc2ccc(Cl)cc2)o1)N1c2ccccc2CCc2ccccc21` the “hERG current change (%, negative = inhibition) at 1uM” value was 5.41%.
In the case of `CN1C(=O)OC(C)(C)C1=O`, the “hERG current change (%, negative = inhibition) at 1uM” value is reported as 4.75%.
`COCC(C)N1CCC(n2nccc2NC(=O)c2ccccc2Cl)CC1` (stereo not shown) was tested, and the “hERG current change (%, negative = inhibition) at 1uM” value was -1.49%.
In the case of `CC(=O)c1ccc(N2CCN(C(=O)Nc3ccc(F)cc3F)CC2)cc1`, the “hERG current change (%, negative = inhibition) at 1uM” value is reported as 9.27%.
For `CC(C(=O)Nc1cccnc1)C1Sc2ccccc2NC1=O` (stereo not shown), the “hERG current change (%, negative = inhibition) at 1uM” value was 15.3%.
For `CC(=O)NCCSc1ccc(S(=O)(=O)N2CCCC2)cn1`, the “hERG current change (%, negative = inhibition) at 1uM” value was 13%.
For `COc1ccccc1CN(C)C(=O)c1cc(-c2cccs2)nc2ccccc12`, the “hERG current change (%, negative = inhibition) at 1uM” value was 12.2%.
In the case of `CCCc1nc2c(s1)CCc1onc(-c3ccc(Br)cc3)c1-2`, the “hERG current change (%, negative = inhibition) at 1uM” value is reported as 12%.
For `Cc1ccc(S(=O)(=O)N2CCCCCC2)cc1C(=O)Nc1cccnc1`, the “hERG current change (%, negative = inhibition) at 1uM” value was -2.23%.
With `Cc1cc(=O)oc2c(CN3CCN(C)CC3)c(O)c(Cl)cc12` the “hERG current change (%, negative = inhibition) at 1uM” value was -1.87%.
With `COc1ccnc(Oc2ccc(F)cc2)c1C#N` the “hERG current change (%, negative = inhibition) at 1uM” value was 12.7%.
With `CCNC(=S)N1C2CCC1CC(NC(=O)Nc1ccc(C(=O)OCC)cc1)C2` (stereo not shown) the “hERG current change (%, negative = inhibition) at 1uM” value was 13.6%.
`Cc1cccc(C(=O)N/N=C2/SCC(=O)N2Cc2ccccc2)c1` was tested, and the “hERG current change (%, negative = inhibition) at 1uM” value was 7.17%.
For `CCOC(=O)c1c(S(=O)(=O)NCC(=O)Nc2cccc(C)c2C)c(C)n(C)c1C`, the “hERG current change (%, negative = inhibition) at 1uM” value was 18.6%.
For `O=C(COc1ccc(Br)cc1)NCCCNC(=O)c1ccncc1`, the “hERG current change (%, negative = inhibition) at 1uM” value was -15.1%.
`CCN(CCCNC(=O)c1ccc2c(c1)NC(=O)CN2C)c1cccc(C)c1` was tested, and the “hERG current change (%, negative = inhibition) at 1uM” value was 9.25%.
`COc1ccc(CNC(=O)CCc2cc(OC)c(OC)c(OC)c2)cc1` was tested, and the “hERG current change (%, negative = inhibition) at 1uM” value was 12.4%.
`Clc1ccc(Cc2noc(-c3cccs3)n2)cc1` was tested, and the “hERG current change (%, negative = inhibition) at 1uM” value was 8.24%.
For `COc1ccc(OCCCn2c(=O)oc3ccccc32)cc1`, the “hERG current change (%, negative = inhibition) at 1uM” value was 8.8%.
In the case of `Brc1ccccc1OCCCCCN1CCOCC1.O=C(O)C(=O)O`, the “hERG current change (%, negative = inhibition) at 1uM” value is reported as -1.12%.
With `CCCCCCC/C=N/Nc1nnc(Cc2ccccc2)c(=O)[nH]1` the “hERG current change (%, negative = inhibition) at 1uM” value was 16.7%.
For `COc1cc(NC(=O)CCCNC(=O)Cn2cnc3sc(C)c(C)c3c2=O)cc(OC)c1OC`, the “hERG current change (%, negative = inhibition) at 1uM” value was 17.7%.
`CC1=CCC2C(=O)N(c3nc(C)cc(C)n3)C(=O)C2C1` (stereo not shown) was tested, and the “hERG current change (%, negative = inhibition) at 1uM” value was 16.9%.
For `O=C(CSc1nnc2ccccn12)Nc1ccc(S(=O)(=O)N2CCOCC2)cc1`, the “hERG current change (%, negative = inhibition) at 1uM” value was 5.43%.
With `O=C(O)c1cc(N2C(=O)CCC2=O)ccc1Cl` the “hERG current change (%, negative = inhibition) at 1uM” value was 7.77%.
`O=C(c1cccc(F)c1)N1CCN(C(=O)c2nn3cccnc3c2Cl)CC1` was tested, and the “hERG current change (%, negative = inhibition) at 1uM” value was 5.23%.
`CCNc1nc(NCC)nc(N/N=C/c2ccc(N(C)C)cc2)n1` was tested, and the “hERG current change (%, negative = inhibition) at 1uM” value was 11.3%.
For `Cc1cnc(NC(=O)CSc2nnc(C)n2N)s1`, the “hERG current change (%, negative = inhibition) at 1uM” value was -3.86%.
`CCn1c(=O)n(CC)c2cc(S(=O)(=O)NCCOc3ccccc3)c(C)cc21` was tested, and the “hERG current change (%, negative = inhibition) at 1uM” value was 12.5%.
`NC(=O)Nc1cc(Cl)ccc1Cl` was tested, and the “hERG current change (%, negative = inhibition) at 1uM” value was 10.4%.
`CCC(=O)Nc1cc(C(C)C)c(O)cc1C` was tested, and the “hERG current change (%, negative = inhibition) at 1uM” value was 11.5%.
`COC(=O)C1=C(c2ccc(F)cc2OCc2ccccc2)C[C@@H]2CC[C@H]1N2C(=O)NCc1ccccc1` was tested, and the “hERG current change (%, negative = inhibition) at 1uM” value was 8.07%.
With `c1ccc(Cn2c(-c3ccccc3)nc3nc4ccccc4nc32)cc1` the “hERG current change (%, negative = inhibition) at 1uM” value was 0.307%.
